# The full ranking holds about 33,000 sequences; the median of “E-score (-0.5 to 0.5)” is about -0.054, and the highest 2% start at about 0.39. The list shows a part of the results.
# Biological target: Ylr278c (UniProt Q05854)
# Experiment: PBM E-score (8-mer binding enrichment) (E-score (-0.5 to 0.5)); higher = stronger / more preferred TF binding; most listed sequences are background and not binding sites
# Details: protein concentration: 200 nM; construct: GST-DNA-binding domain
# Experimental: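 Universal 'all 10-mer' protein binding microarrays (Agilent AMADID 015681) probed with GST-tagged S. cerevisiae TFs (full-length or DBD) made by in vitro transcription/translation (PURExpress), about 100-200 nM. Bound TF was detected with fluorescent anti-GST. Each ungapped 8-mer (which stands for itself and its reverse complement) is scored by the PBM enrichment score (E-score), a modified Wilcoxon-Mann-Whitney statistic from -0.5 to +0.5, computed with the Universal PBM Analysis Suite. Scale: above 0.35 generally sequence-specific binding.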
row,Sequence,PBM E-score
1,GGTGCGAA,0.0287
2,ACAAGCCG,0.0883
3,GAACACGA,-0.03
4,GGTTCAAC,-0.0464
5,AAGATAGT,0.0193
6,AAGGGCCA,-0.284
7,CGCGCAAA,0.195
8,TCCACTAA,-0.0203
9,ACTCCTAA,-0.0203
10,ACTGCGTA,-0.107
11,ATAACATA,0.032
12,CGCCCGAG,0.237
13,CTGGGTAA,-0.124
14,AGCTTTCA,-0.146
15,ACCCCGAT,0.426
16,AATGGCCA,0.0167
17,AGCGTCGA,-0.103
18,CAAACAGC,-0.0421
19,GGTTGGAC,0.00889
20,CGACGGTC,0.0469
21,AAGTGCTA,-0.258
22,TGGCTACA,-0.123
23,CAAACAAA,-0.172
24,AAGGGAGA,-0.178
25,CACCTTGC,-0.097

row,Sequence,PBM E-score
1,GCTGCATA,-0.13
2,GATCATGA,-0.00747
3,CTCATCAC,-0.19
4,AATGTGCT,-0.0471
5,TCCGGTCA,0.378
6,ACGCTTTC,-0.0857
7,CTGGCATC,-0.314
8,AGGGCCTA,-0.0551
9,AATCCGCA,0.316
10,AAGGTATC,-0.038
11,CTATGGTC,-0.186
12,CTGGCGTA,-0.244
13,CTGCCCCA,-0.101
14,ATCGGGTG,0.174
15,ATACACGC,0.0739
16,GAAACTAA,-0.124
17,GCTATGAA,-0.12
18,AACACAAT,-0.152
19,ATTGTACG,-0.242
20,GTCCAGTA,-0.16
21,ACTTCACC,0.144
22,AGCTTATA,-0.123
23,CCCTGAGC,0.1
24,CATTGGAA,-0.0814
25,ACCATCAG,-0.0879

row,Sequence,PBM E-score
1,CGGGGGAC,0.218
2,CAAAGTAG,-0.238
3,AATCTCCA,-0.0603
4,ACTATAGG,-0.264
5,GACTTCTA,-0.106
6,AGGCAGAC,-0.171
7,ACTCGACT,-0.298
8,CCTGAACA,-0.182
9,GAGCCCAC,0.0305
10,ACGGTGGA,-0.143
11,CCTAAGTC,-0.0846
12,AGTGAAAT,-0.095
13,CTGGCCTC,0.0338
14,CCTCTAAG,-0.263
15,GGGCGTAA,0.0712
16,AGGAGTTC,0.109
17,AACTTCAG,-0.108
18,AAGTGTAC,-0.275
19,GGTTGAAA,0.0153
20,GTGATTGA,0.0007
21,CGCAAACC,0.00999
22,AAGGAAGA,-0.137
23,ACCTGCTG,-0.00776
24,AAACCCGA,0.384
25,AGGCATGC,-0.0463

row,Sequence,PBM E-score
1,CGCGAGAC,-0.0996
2,CCCATGTA,-0.114
3,GAGATAGA,-0.0983
4,TCCATGGA,0.0366
5,GGCCTCTA,-0.294
6,TAGTGTAA,-0.0583
7,TATGCCCA,-0.277
8,AAATGCAC,0.145
9,ATCAAGTG,-0.0482
10,CCATATTA,-0.133
11,GTCGGGAA,0.201
12,CCCCCGTA,-0.173
13,CTACTGAA,-0.145
14,TACTTCAA,-0.0168
15,CGGGCAAG,0.205
16,CCTACCTC,-0.0324
17,CTATATTA,-0.00907
18,ATGACCCA,-0.23
19,CCCATAGC,-0.147
20,CCAAATTC,-0.148
21,ATTGTAGG,-0.0526
22,CCCTGGAG,-0.268
23,AGGGGACA,-0.182
24,ATACGTAC,-0.246
25,ATTACAGA,-0.0614

row,Sequence,PBM E-score
1,AAGAAGTG,-0.0791
2,CGTTCATC,0.02
3,CAAGGTAC,-0.202
4,CATGTCTC,-0.00706
5,CAACGTAA,-0.175
6,ATAATTGC,-0.0388
7,CGATAAGA,0.108
8,CGTCTGAG,-0.0235
9,GGTGGCAA,-0.156
10,AGAGTTGG,-0.115
11,CTAAACCA,-0.0227
12,ATATCATC,-0.0863
13,ACGGATTA,0.205
14,AATGTGAA,-0.116
15,ACTGCGCT,-0.183
16,TCGTACCA,-0.0827
17,CCAGTCTC,-0.18
18,CCACCACG,-0.0578
19,GCCAAGCC,0.0558
20,AACCTCAC,-0.238
21,CCTAGAAG,-0.246
22,CTGAATTC,-0.0397
23,ACTCTGGA,-0.117
24,AGGCTTCA,-0.0672
25,ATGTTCCA,-0.162

row,Sequence,PBM E-score
1,ACTGGAGG,-0.0832
2,GCTACCAA,-0.0501
3,GCCGCGCC,0.137
4,AGATAGTG,-0.00772
5,GCGTTGCA,0.0517
6,AAAGCCTG,-0.223
7,GCCTCGAA,-0.115
8,TAGGCCTA,-0.323
9,ATAGGGAC,-0.162
10,GTTCGCTA,-0.132
11,ATTCATGC,0.00651
12,ACCCTGAA,-0.0822
13,AGCAACGA,-0.198
14,GATACGCA,-0.238
15,GGGGCACA,-0.0701
16,GGCAAGAA,-0.0515
17,GAGCAGGA,-0.0113
18,TAAGAACA,0.0282
19,ACACAGTG,-0.0585
20,GTTCTTTA,-0.0613
21,GATCAACC,0.0685
22,ATTGAGGA,-0.051
23,AAGGGTGG,-0.221
24,AGCCACCA,-0.223
25,ATATATAG,0.0481

row,Sequence,PBM E-score
1,TCTAATAA,-0.175
2,ACGTATGC,-0.065
3,AATGATGA,-0.0929
4,CTGGGATA,0.0199
5,AGAATTTA,-0.0511
6,TCGTTTAA,-0.281
7,TCGCGACA,-0.00641
8,CCAGGGGA,0.014
9,CTTACCGA,0.0404
10,AAGCATGA,-0.0695
11,TCGCAAAA,0.0186
12,GGCGATAC,0.113
13,TCGCTCAA,-0.103
14,ACGCGCCA,-0.0653
15,AGTCAAGC,-0.206
16,CAAAGGAC,-0.249
17,ATTTTTAA,0.139
18,CGATGGTA,-0.0705
19,GCAACACC,0.113
20,CCACCCAA,-0.0641
21,AATAACGG,0.234
22,GACGATGC,-0.0415
23,TCGCGAGA,0.0984
24,AGCTACGG,-0.0612
25,CTCCTGTC,-0.141

row,Sequence,PBM E-score
1,ATAAGGAG,0.0699
2,GCCGTTAC,0.183
3,CTCCATCA,0.0402
4,GGTGGCAC,-0.0782
5,AATGGGCA,-0.179
6,CGAAACCG,0.276
7,CAACTATC,-0.154
8,GCCACAGA,-0.146
9,CAACAAGG,-0.101
10,CTGTGCAC,-0.193
11,AAAAATGA,-0.148
12,TCCTGAAA,0.0212
13,AGGTTATC,-0.0309
14,CCGTCCAC,0.152
15,AGACTGTA,-0.188
16,ATCACGTC,-0.0735
17,AATGAAAA,0.0333
18,AATGGTGG,-0.149
19,ACTGTCGG,0.305
20,CTACGATA,-0.16
21,GTGGCGCA,-0.132
22,GCGTCGGA,0.438
23,ATAAAAGA,-0.13
24,GCTCTAAA,-0.284
25,CCTATTCC,0.193

row,Sequence,PBM E-score
1,AGATCGGG,0.222
2,ACAAAGCC,0.0747
3,AGGTTCGA,-0.0589
4,AATGATTG,-0.0396
5,TAAACACA,-0.183
6,ATGTCAAC,-0.0364
7,AGGATCCG,0.226
8,GGGTGACA,0.0121
9,AGTCGGAA,0.408
10,TCCAGCAA,-0.373
11,CGGTTTAG,0.096
12,AGCAGAAT,-0.0911
13,ATGAATAA,-0.189
14,GACGGACC,0.284
15,AGGGAACT,-0.0186
16,GCTATGGA,-0.0959
17,CGCGCATC,0.0969
18,ATCTGGGA,-0.273
19,CAAGGGCG,-0.0936

# From the supplement of paper PMC3334620
